Self-cleavage data for 84 variants are collected here from the RNAGym collection of RNA variant scans (doi:10.7554/elife.90254).

Read counts are not given, so values of variants with three or more changes are uncertain.

The labels stand for the following.
B1: LINE1-full (parent)
chain: UACGUAGGUGGUUUUCCCCUGAUAGUGCUAAGGGGGCCUGGAAGUUUGGACUGGGCAGAGCUCAACACAGCGUGGCAAAGUGGCUGUGGCUAGACUGCCUCUCUGGAUUCCUCGUCACUCAGCAGGGCAUCUCUGAGAGAAAUGCC

In the series the parent is B1. Briefly: self-cleavage, relative activity (ratio to wild type); higher = more cleavage; in vitro, sequencing; the parent is a self-cleaving ribozyme.
For the variant U1A G33A A77G U100C U130C A141G, the self-cleavage worked out at 0.

As for A2G U14C C84G A121G U134C, the self-cleavage was 0.41.

Regarding A2G A6U A138G G144A, the self-cleavage is 0.77.

A2G G33C U45C A129G: the self-cleavage came to 0.

Turning to U1C U9A U15C, the self-cleavage is 0.76.

As for A2G U20C G58A, the self-cleavage came to 0.

As for U1C U13C U62C U85C, the self-cleavage turned out to be 0.

On to U1C A6G U46C A107G, for which the self-cleavage was determined as 0.

In the case of U1C U5C A59G U132A, the self-cleavage stood at 0.

A2G U39C U46A A121G A142G: the self-cleavage was 0.34.

As for A2G U13A A50U A67G, the self-cleavage was 0.2.

As to A2G A31G G34A A77G A121G A142G, the self-cleavage was 0.77.

Consider A2G U12G U39C A67U U81A, for which the self-cleavage turned out to be 0.

For A2G U13C A121U A138U, the self-cleavage came out at 1.25.

With U1C U14C U109C A121C, the self-cleavage is 0.61.

Regarding U1C G33U U47A G72A, the self-cleavage stood at 0.79.

Take U1C G32C U96C A121U C133A: the self-cleavage was determined as 0.18.

As to A2G C66A C98U U119C, the self-cleavage is 0.

As for U1A U12A A67G G88U, the self-cleavage is 0.16.

For A2C U12C U23C C84A, the self-cleavage stood at 0.47.

A2G U13A A30G A124G U130C: the self-cleavage came to 1.53.

Turning to A2G U9G U102A C110A, the self-cleavage was found to be 0.68.

Regarding U1A G54A U115C, the self-cleavage amounted to 1.6.

For the variant U1C A42G G58U U81C A117G A138G, the self-cleavage came out at 0.

Consider U1C A22G A64G G105U U115C U132C, for which the self-cleavage came to 0.27.

U1C U29C A79G U102A A107G U112A U134C: the self-cleavage stood at 2.12.

Take U1A U26G U85C: the self-cleavage amounted to 0.17.

Consider A2G A30U C84U G127C, for which the self-cleavage is 0.66.

On to U1A U5C U87C U119C, for which the self-cleavage stood at 0.

Consider A2G C37G A42G A92U C131U A136G, for which the self-cleavage was 1.05.

Take U1A U39G A65U U81A: the self-cleavage was determined as 0.69.

As for U1C A129U C145U, the self-cleavage amounted to 0.46.

For A2G A43G U62C A107U A141G, the self-cleavage came to 0.

A2C U13C A69G A140G: the self-cleavage worked out at 0.93.

Consider U1C U13A A77G, for which the self-cleavage was determined as 1.23.

Turning to U1C C101U U102C U130C, the self-cleavage is 0.53.

Consider U1G A22G A42G G48A A57G, for which the self-cleavage amounted to 0.66.

Regarding U1C U47C G82A, the self-cleavage is 1.71.

Turning to A2G A69G U143G, the self-cleavage was determined as 0.66.

As to U1C A22U U45A, the self-cleavage was 0.48.

A2G U9A G122A: the self-cleavage was determined as 0.61.

As for A2G A79C A142G, the self-cleavage was determined as 1.84.

Consider A2G U26A U39A G53A, for which the self-cleavage amounted to 0.58.

As for A2G U12G U62A, the self-cleavage was found to be 0.19.

For A2G G25A U26A A64U, the self-cleavage was found to be 0.78.

Turning to A2C U14C A50G U119A, the self-cleavage amounted to 1.32.

Consider U1C A67G A138G, for which the self-cleavage was 0.48.

As for U1C A69U U115C, the self-cleavage amounted to 0.21.

Consider U1C A2G A22U A31G U39C A138G, for which the self-cleavage was determined as 1.02.

As for A2G U12G A42G, the self-cleavage came out at 0.87.

For A2G U14C U39C A43G U52A, the self-cleavage is 0.47.

With U1G U46C A129G A138U, the self-cleavage was 0.75.

U1C A117U A136G: the self-cleavage came out at 0.62.

As for A2G A77G U112C, the self-cleavage came out at 1.41.

With A2G G83A U119A, the self-cleavage amounted to 1.47.

Turning to U1G A43G A69C A138G, the self-cleavage came to 0.71.

On to A2G C71A U109C, for which the self-cleavage is 0.29.

On to A2G U9A A94G, for which the self-cleavage came out at 1.19.

For the variant U1C U26C U87A U132A, the self-cleavage turned out to be 0.

In the case of A2G U20A U52C, the self-cleavage amounted to 0.28.

As for A2G G8A U87C U115A A140U, the self-cleavage was 0.

In the case of U1C A24U A77G A117U, the self-cleavage amounted to 0.67.

For the variant U1A U96A U132C U134A, the self-cleavage came to 0.

U1C U12C U39C A69U A142G: the self-cleavage came out at 0.12.

Regarding U1A A67G U104A, the self-cleavage was 0.54.

As to U1A U26C U39A, the self-cleavage was 1.45.

Turning to A2G A65G U81A C120U A129U, the self-cleavage was determined as 0.12.

As to A2G G27A G40U G114C U143A, the self-cleavage came to 0.51.

U1C U39C U47C U52C: the self-cleavage stood at 0.

A2G U12C U45C G58A U134A: the self-cleavage amounted to 0.2.

Consider A2G A94G A136U, for which the self-cleavage is 0.68.

As for U1A A92G A129G, the self-cleavage stood at 0.2.

In the case of U1C U132C A141G, the self-cleavage was 1.38.

Turning to U1C U46C U52C, the self-cleavage was found to be 0.

With A2G A57C A65G U130A, the self-cleavage came out at 0.44.

Take A2G C28U A67G: the self-cleavage came out at 0.69.

For U1C A50U U73C A117U, the self-cleavage was found to be 1.61.

U1C A2G A30G U81C: the self-cleavage worked out at 0.88.

As for A2G U12G A59G, the self-cleavage is 0.61.

With U1A U5C A42G G137A, the self-cleavage was determined as 1.14.

For U1C U73C C116A, the self-cleavage stood at 0.95.

Consider U1C U85C U100C G105A U134A, for which the self-cleavage worked out at 0.23.

Take U1C C99U U134A A138G: the self-cleavage turned out to be 0.58.

With U1C U13G A142G, the self-cleavage worked out at 1.07.
